Assay results from US20250051755A1 (Dana-Farber, published 2025).

How the values were obtained:
Her2 = target: T1, Her2 (UniProt P04626); experiment: flow cytometry on Her2 induced OVCAR8 cells, loss of binding on Her2 knockdown in SKOV3; immunoprecipitation of Her2 from SKOV3 extracts
T1 construct: whole, on cells; Also precipitated from SKOV3 whole cell extracts; also called Erbb2

BCAM [1] = target: T2, BCAM (human, UniProt P50895 32-628); experiment: flow cytometry on live cells; given as affinity
T2 construct: whole, on cells; also called Basal Cell Adhesion Molecule; human BCAM
T2 sequence (looked up): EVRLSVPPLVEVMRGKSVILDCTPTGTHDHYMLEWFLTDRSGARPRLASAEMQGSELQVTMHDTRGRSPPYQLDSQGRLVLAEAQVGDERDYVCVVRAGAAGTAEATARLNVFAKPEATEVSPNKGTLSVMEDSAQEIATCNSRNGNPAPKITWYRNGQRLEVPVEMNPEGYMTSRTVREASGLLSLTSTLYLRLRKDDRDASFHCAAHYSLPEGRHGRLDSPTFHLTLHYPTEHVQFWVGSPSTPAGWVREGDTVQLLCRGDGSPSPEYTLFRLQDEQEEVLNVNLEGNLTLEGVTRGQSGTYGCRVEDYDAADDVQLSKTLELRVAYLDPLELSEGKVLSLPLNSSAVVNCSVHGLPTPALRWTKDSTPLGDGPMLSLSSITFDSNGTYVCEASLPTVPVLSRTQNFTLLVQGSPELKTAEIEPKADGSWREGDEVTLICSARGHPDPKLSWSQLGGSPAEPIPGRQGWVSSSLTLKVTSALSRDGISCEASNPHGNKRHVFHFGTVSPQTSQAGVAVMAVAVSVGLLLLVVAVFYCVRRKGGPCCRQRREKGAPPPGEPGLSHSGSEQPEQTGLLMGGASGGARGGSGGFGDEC

recombinant human BCAM [2] = target: T3, recombinant human BCAM (human, UniProt P50895 32-547, limits assumed); experiment: ELISA on recombinant BCAM; given as affinity
T3 construct: Bought protein coated on ELISA plates; also called recombinant BCAM (Sino); untreated recombinant human BCAM
T3 sequence (looked up): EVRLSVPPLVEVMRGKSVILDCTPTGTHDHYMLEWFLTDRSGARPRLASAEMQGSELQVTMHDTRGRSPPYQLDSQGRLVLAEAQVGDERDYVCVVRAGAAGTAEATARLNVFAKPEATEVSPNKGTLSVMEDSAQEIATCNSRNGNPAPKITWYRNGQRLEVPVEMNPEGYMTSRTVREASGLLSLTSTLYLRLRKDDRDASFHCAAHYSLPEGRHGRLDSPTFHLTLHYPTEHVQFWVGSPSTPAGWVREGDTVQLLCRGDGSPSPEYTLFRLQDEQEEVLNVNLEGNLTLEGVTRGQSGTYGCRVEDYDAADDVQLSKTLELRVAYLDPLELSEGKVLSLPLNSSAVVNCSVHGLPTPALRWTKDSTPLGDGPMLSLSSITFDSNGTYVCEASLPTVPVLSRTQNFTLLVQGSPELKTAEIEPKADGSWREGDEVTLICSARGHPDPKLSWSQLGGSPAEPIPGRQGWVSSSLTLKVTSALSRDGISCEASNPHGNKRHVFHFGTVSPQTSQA

BCAM [3] = target: T2, BCAM; experiment: flow cytometry on live Kuramochi cells; given as affinity
recombinant human BCAM [4] = target: T3, recombinant human BCAM; experiment: ELISA on coated recombinant BCAM; given as affinity
BCAM [5] = target: T2, BCAM; experiment: flow cytometry binding curve on live Kuramochi cells

B1: a-Her2 (1A12) VHH-hIgG1-Fc (Fc fusion)
chain: QVQLQESGGGLVQAGGSLRLSCAASGRTISNAFMGWYHQAPGEQREFVATISTTGTTNYRNSVKGRFTISRDNAKNTVYLQMNNLKPEDMGTYYCRHFGYDVWGQGTQVTVSS[letters of human IgG1 Fc not shown]
notes: VHH fused to human IgG1-Fc; also called 1A12-hIgG1-Fc; Ab a-Her2 (1A12)
B1: binds (Her2).

B2: a-Her2 (1A51) VHH-hIgG1-Fc (Fc fusion)
chain: QVQLQESGGGLVQAGGSLRLSCAGSGRTFSLYSMGWFRQSAGKAREFVASINWNGEVTEYADSVKGRFIISKANANKTMSLQMNSLKFEDTGVYYCAAAPRFESTWLADYWGQGTQVTVSS[letters of human IgG1 Fc not shown]
notes: VHH fused to human IgG1-Fc; also called Ab a-Her2 (1A51); cluster A antibody
B2: binds (Her2).

B3: a-Her2 (1A100) VHH-hIgG1-Fc (Fc fusion)
chain: QVQLQESGGGLVQAGDSLKLSCAASGDTFSRYAMAWFRQAPGKEREFVAAVSWSGGITHYADSLKGRFTISRDSAKNTVYLQMNSLKPDDTAIYYCTQDTIPGGAAREFRGYWGQGTQVTVSS[letters of human IgG1 Fc not shown]
notes: VHH fused to human IgG1-Fc; also called Ab a-Her2 (1A100); cluster A antibody
B3: binds (Her2).

B4: a-BCAM VHH-hIgG1-Fc fusion construct (6N2_22) (Fc fusion)
chain: QVQLVESGGGLVQPGGSLRLSCAASGFTFSSYAMSWVRQAPGKGPEWVSAINSGGGSTSYADSVKGRFTISRDNAKNTLYLQMNSLKPEDTAVYYCAKSWTVRIGQIYHHPTDYWGQGTQVTVSS[letters of human IgG1 Fc not shown]
notes: also called 6N2_22-hIgG1-Fc; anti-BCAM VHH
B4 was tested, and the EC50 (BCAM [1]) was 7 nM, the EC50 (recombinant human BCAM [2]) was about 4 nM and the EC50 (BCAM [3]) was about 7 nM. For the same binder, the EC50 (recombinant human BCAM [4]) was 3.5 nM and the EC50 (BCAM [5]) was 7.2 nM.
